PMC6055584
These are yes or no findings as the source states them, for the method shown. For some of these results: In cells and extracts the contact can be indirect. Some entries that bind do so weakly or less than the wild type. Tags and fused reporters may be left off the sequences shown. Values belong to the molecule of their own block, whether it stands above or below them.

By UniProt entry, the sequences of proteins in these tests, tags left out.
UniProt E5RQA1: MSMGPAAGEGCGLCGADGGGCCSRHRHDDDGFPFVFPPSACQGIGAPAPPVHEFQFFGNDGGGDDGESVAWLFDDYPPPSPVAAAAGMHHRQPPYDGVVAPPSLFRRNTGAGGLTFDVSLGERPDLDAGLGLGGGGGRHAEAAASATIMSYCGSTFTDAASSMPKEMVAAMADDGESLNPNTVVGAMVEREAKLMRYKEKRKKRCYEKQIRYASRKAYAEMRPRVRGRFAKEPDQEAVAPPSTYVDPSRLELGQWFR

Assays:
[1] = target: T1, Days To Heading on chromosome 8 (DTH8), yeast two-hybrid fusion (rice (Oryza sativa)) (UniProt Q0J7P4); experiment: two-hybrid; 'preliminary yeast data', data not shown
T1 sequence: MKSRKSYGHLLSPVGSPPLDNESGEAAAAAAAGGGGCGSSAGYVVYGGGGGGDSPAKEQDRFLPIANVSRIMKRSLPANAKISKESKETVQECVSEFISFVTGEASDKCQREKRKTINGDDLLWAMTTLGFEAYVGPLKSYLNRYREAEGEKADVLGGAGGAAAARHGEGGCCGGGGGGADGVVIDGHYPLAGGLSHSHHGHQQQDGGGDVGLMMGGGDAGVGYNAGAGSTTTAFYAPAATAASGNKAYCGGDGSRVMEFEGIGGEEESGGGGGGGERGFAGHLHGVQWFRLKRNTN

[2] = target: T2, GST-tagged DTH8 (rice (Oryza sativa)), Q0J7P4; experiment: pull-down; GST pull-down; E. coli BL21 lysates of the two proteins mixed in 25 mM Tris-HCl pH 7.5, 150 mM NaCl, 1 mM DTT, glutathione agarose beads overnight at 4°C; washes with 1% Triton X100 and 0.1% SDS; blots with anti-GST and anti-MBP; details: remark: other sources report otherwise
T2 chain: T1 sequence

[3] = target: T3, pSPYNE173-DTH8 (BiFC fusion) (rice (Oryza sativa)), Q0J7P4; experiment: split reporter; BiFC; YFPC (pSPYCE(M)) and YFPN (pSPYNE173) fusions, Agrobacterium GV3101 infiltration of N. benthamiana leaves, imaged 3 days after infiltration; details: remark: other sources report otherwise
T3 chain: T1 sequence

[4] = target: T1, Days To Heading on chromosome 8 (DTH8), yeast two-hybrid fusion (rice (Oryza sativa)); experiment: two-hybrid; pairwise; pGBKT7 baits and pGADT7 preys co-transformed into S. cerevisiae AH109; growth on Synthetic Dropout/-Trp-Leu-His-Ade at 30°C
[5] = target: T4, Hd1 of the histidine pull-down (Fig. 8) (rice (Oryza sativa)), Q9FDX8; experiment: pull-down; histidine pull-down of the three recombinant proteins OsHAPL1, DTH8 and Hd1 from E. coli; Hd1 as bait; details: remark: other sources report otherwise
T4 chain: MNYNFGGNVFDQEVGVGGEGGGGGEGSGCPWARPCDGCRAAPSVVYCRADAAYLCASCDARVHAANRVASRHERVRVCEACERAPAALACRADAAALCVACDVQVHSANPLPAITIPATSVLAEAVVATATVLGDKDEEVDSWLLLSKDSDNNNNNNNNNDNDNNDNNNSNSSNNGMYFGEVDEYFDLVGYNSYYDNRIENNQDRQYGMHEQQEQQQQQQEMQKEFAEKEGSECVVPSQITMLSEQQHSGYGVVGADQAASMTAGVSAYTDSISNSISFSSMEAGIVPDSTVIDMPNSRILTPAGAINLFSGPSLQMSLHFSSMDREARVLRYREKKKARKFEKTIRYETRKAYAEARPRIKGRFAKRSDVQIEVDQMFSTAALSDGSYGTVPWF

binding [2]: binds
B1: Hd1, recombinant, of the GST pull-down (Fig. 7B), Q9FDX8 1-395 (protein)
chain: T4 chain

binding [4]: no binding
B4: TFIIB (protein, UniProt Q8W0W3 1-312)
chain: MSDSFCPDCKKHTEVAFDHSAGDTVCTECGLVLEAHSVDETSEWRTFANESSDNDPVRVGGPTNPLLTDGGLSTVIAKPNGAQGEFLSSSLGRWQNRGSNPDRSLILAFRTIANMADRLGLVATIKDRANEIYKKVEDLKSIRGRNQDAILAACLYIACRQEDRPRTVKEICSVANGATKKEIGRAKEFIVKQLEVEMGQSMEMGTIHAGDFLRRFCSTLGMNNQAVKAAQEAVQRSEELDIRRSPISIAAAVIYMITQLSDDKKPLKDISLATGVAEGTIRNSYKDLYPYASRLIPNTYAKEEDLKNLCTP

Further lines, the molecule ahead of its results:

Molecule: Grain number, plant height and heading date 7 (Ghd7), yeast fusion (from UniProt E5RQA1 1-257)
binding [1]: binds

B2: Hd1 BiFC fusion, Q9FDX8 1-395 (protein)
chain: T4 chain
binding [3]: binds

B3: HAP3C (protein, UniProt Q65XK1 1-143)
chain: MSEGFDGTENGGGGGGGGVGKEQDRFLPIANIGRIMRRAVPENGKIAKDSKESVQECVSEFISFITSEASDKCLKEKRKTINGDDLIWSMGTLGFEDYVEPLKLYLRLYRETEGDTKGSRASELPVKKDVVLNGDPGSSFEGM
binding [4]: binds

B5: Days To Heading on chromosome 8 (DTH8), yeast two-hybrid fusion (protein, UniProt Q0J7P4 1-297)
chain: T1 sequence
binding [4]: binds

B6: GST-tagged DTH8, Q0J7P4 1-297 (protein)
chain: T1 sequence
binding [5]: binds
